The text below walks through data of the supplement of paper PMC3334620.

The full ranking holds about 33,000 sequences; the median of “E-score (-0.5 to 0.5)” is about -0.012, and the highest 2% start at about 0.27. Some of the results follow.

This experiment has as its target T1, Vhr1 (UniProt P40522).
T1 sequence: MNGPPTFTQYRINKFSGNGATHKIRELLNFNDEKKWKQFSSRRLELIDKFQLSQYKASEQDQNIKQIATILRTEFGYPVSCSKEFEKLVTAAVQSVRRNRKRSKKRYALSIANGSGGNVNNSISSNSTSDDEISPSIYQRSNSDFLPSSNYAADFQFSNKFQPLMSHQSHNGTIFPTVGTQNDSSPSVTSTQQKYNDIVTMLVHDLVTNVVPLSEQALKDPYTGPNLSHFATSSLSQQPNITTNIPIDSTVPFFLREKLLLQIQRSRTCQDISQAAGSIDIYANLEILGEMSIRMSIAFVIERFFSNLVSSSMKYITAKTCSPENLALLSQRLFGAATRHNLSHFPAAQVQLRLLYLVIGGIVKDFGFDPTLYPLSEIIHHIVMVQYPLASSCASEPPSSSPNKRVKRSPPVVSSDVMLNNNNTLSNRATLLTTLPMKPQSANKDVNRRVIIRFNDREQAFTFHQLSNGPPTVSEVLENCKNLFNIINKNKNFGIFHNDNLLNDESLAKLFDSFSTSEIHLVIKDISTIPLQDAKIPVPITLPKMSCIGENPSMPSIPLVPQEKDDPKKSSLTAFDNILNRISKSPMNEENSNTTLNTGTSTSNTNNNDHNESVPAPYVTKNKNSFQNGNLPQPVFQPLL
In words: PBM E-score (8-mer binding enrichment) (E-score (-0.5 to 0.5)); higher = stronger / more preferred TF binding; most listed sequences are background and not binding sites. The following applies: protein concentration: 200 nM; construct: GST-full length. As to the method:
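Universal 'all 10-mer' protein binding microarrays (Agilent AMADID 015681) probed with GST-tagged S. cerevisiae TFs (full-length or DBD) made by in vitro transcription/translation (PURExpress), about 100-200 nM. Bound TF was detected with fluorescent anti-GST. Each ungapped 8-mer (which stands for itself and its reverse complement) is scored by the PBM enrichment score (E-score), a modified Wilcoxon-Mann-Whitney statistic from -0.5 to +0.5, computed with the Universal PBM Analysis Suite. Scale: above 0.35 generally sequence-specific binding.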
For the sequence CCAGCAAC, the “PBM E-score” value was determined as 0.00595. The result for CGGATTTA reads 0.0743; that for AGAGGCAT, 0.0247; that for AGACATAC, 0.18. For ACTCCGGC, the “PBM E-score” value amounted to 0.24. For GATGCTAA, the “PBM E-score” value was -0.15.

For the sequence AAGCATAA, the “PBM E-score” value is -0.0698.

As for GACAACTA, the “PBM E-score” value is -0.0145.

On to ATCGTAGC, for which the “PBM E-score” value worked out at 0.0741. Take AAAGAGAC: the “PBM E-score” value was -0.0829.

Take ATGCATCG: the “PBM E-score” value was 0.0603. On to AGTGTGAA, for which the “PBM E-score” value came out at 0.0173. AGCGTCCG: the “PBM E-score” value is -0.0168.

With GAATGTTA, the “PBM E-score” value is -0.0495. Turning to AATTTAGG, the “PBM E-score” value was found to be 0.0535.

As to ACGGCGAC, the “PBM E-score” value came to 0.0771. As for TATTTCCA, the “PBM E-score” value is -0.0666. Take CGGAGCCC: the “PBM E-score” value was -0.187.

AGAAGACA: the “PBM E-score” value is -0.187. The result for AGGAGAGC reads -0.236.

For CTATAGCA, the “PBM E-score” value was -0.0305. Turning to AAGCGTTG, the “PBM E-score” value was -0.0505. On to ACCGTGAC, for which the “PBM E-score” value is 0.225. The result for ACTTGACC reads -0.18; that for CGTGGTAC, 0.0596; that for AAAAATGG, -0.146. The result for TCCATACA reads 0.0932. The result for ATACAGTA reads 0.133; that for CCGGGCAG, 0.108. Consider CAGCCGCG, for which the “PBM E-score” value was 0.222. Take CTCCGGTC: the “PBM E-score” value is 0.163. As to GAATGGCC, the “PBM E-score” value is -0.0334. The result for CAGTCGTC reads -0.0857. As to CATCGAGC, the “PBM E-score” value was 0.0195. The result for CCTCCTGA reads -0.0681. The result for GGCTCACA reads 0.0821. Regarding GACACGTA, the “PBM E-score” value is -0.0499. The result for CAGCGTAG reads -0.0211. For the sequence CATGTCGG, the “PBM E-score” value came to 0.178. The result for AAGGACCG reads -0.251. AGCGTCTC: the “PBM E-score” value was -0.169.

Turning to CATTCAAG, the “PBM E-score” value is -0.0791. The result for CTACTTAA reads -0.204; that for AGTCCTAG, -0.205. The result for CCTCCGTA reads 0.0807; that for GAGTATGC, 0.0702. As for TGGACTAA, the “PBM E-score” value amounted to 0.0529.

Take ACACACGT: the “PBM E-score” value is 0.0925. The result for AGCAAAAA reads -0.167; that for GGATGACA, -0.053; that for ATCCAAGG, -0.0179. As for CTTAGTTA, the “PBM E-score” value was determined as 0.121. Turning to ACAGTCGG, the “PBM E-score” value was 0.165. The result for TAACACGA reads 0.212; that for AGTCCTAA, 0.0704. For ACTCTGTG, the “PBM E-score” value came out at 0.0323. For the sequence CCACATCA, the “PBM E-score” value was 0.157.

Consider AACCCCGG, for which the “PBM E-score” value was -0.0703.

Take ATGGATTC: the “PBM E-score” value was 0.112. The result for ACCCCTGA reads 0.143; that for AAGGTCAT, -0.0525. In the case of CGGTGCCC, the “PBM E-score” value worked out at 0.0865. Regarding AATTGAGT, the “PBM E-score” value turned out to be 0.272. The result for CTGTAACA reads 0.024; that for AAAAAAGT, -0.00293. The result for ACTATCGG reads 0.0675; that for CAATGTCA, 0.0787; that for CTTCCGTA, -0.0944.

With ACGTAATC, the “PBM E-score” value turned out to be 0.203. For the sequence TCACGGCA, the “PBM E-score” value was -0.0393. The result for CCGAGGCG reads 0.0619; that for GCGGAAGC, -0.177; that for AGTTGGCA, 0.0337. As to ACTTCACT, the “PBM E-score” value was -0.204.

ATTTAAAG: the “PBM E-score” value was -0.0479. The result for AATAAGGA reads -0.159; that for GCAATGAA, 0.0166; that for GTGATAGA, -0.0432. With CATTCCAC, the “PBM E-score” value worked out at 0.0312.

With CTGCTCAA, the “PBM E-score” value is -0.161. As for AACCATAG, the “PBM E-score” value was -0.00721. The result for ACTGTGAC reads 0.26; that for GGCAAGCA, -0.224; that for GGCTTAGA, -0.384. The result for AACTCCAG reads -0.144.

Regarding CTGGGACC, the “PBM E-score” value is -0.128.
